Data published in patent EP2182008A2 (ICOS Corporation, dated 2010).

Key:
[1] = molecular target: T1, soluble ICAM-1/IgG1 fusion protein (UniProt P05362 28-480, limits assumed); assay: ELISA, detection with anti-IgG4 HP6023
T1 construct: also called ICAM-I/IgG; not shown: IgG1 portion

bovine serum albumin = molecular target: T2, bovine serum albumin (bovine, UniProt P02769); assay: ELISA, detection with anti-IgG4 HP6023
T2 construct: also called BSA

Chain of bovine serum albumin (P02769 25-607 limits assumed): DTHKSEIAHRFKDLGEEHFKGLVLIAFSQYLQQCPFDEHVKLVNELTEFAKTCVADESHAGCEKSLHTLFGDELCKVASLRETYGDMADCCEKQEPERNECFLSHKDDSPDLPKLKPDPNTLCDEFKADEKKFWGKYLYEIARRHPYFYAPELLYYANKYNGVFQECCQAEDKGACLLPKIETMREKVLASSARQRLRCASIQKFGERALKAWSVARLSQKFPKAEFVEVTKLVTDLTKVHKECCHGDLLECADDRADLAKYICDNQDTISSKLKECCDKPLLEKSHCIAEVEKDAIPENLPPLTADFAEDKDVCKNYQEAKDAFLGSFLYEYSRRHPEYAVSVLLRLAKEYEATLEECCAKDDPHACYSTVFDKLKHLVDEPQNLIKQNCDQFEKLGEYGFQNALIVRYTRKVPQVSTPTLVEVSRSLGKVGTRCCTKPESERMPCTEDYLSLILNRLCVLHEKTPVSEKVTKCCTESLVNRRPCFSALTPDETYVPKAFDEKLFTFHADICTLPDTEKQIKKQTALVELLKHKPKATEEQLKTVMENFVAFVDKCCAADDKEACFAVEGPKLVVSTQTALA
T1 sequence (P05362 28-480 limits assumed): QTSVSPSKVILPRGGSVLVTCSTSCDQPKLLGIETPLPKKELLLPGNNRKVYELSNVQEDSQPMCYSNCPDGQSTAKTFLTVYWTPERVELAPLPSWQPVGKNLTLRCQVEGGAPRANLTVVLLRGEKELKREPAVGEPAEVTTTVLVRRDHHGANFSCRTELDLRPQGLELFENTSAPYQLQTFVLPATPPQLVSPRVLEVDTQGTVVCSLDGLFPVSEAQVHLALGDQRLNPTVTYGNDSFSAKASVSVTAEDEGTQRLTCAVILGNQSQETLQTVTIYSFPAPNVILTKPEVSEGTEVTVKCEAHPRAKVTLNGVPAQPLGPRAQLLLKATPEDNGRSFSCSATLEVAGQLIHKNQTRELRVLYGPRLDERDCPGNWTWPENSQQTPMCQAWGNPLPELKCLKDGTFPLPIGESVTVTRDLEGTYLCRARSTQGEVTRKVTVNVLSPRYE

B1: human αd I domain/IgG4 fusion protein (Fc fusion)
chain: HQEMDIVFLIDGSGSIDQNDFNQMKGFVQAVMGQFEGTDTLFALMQYSNLLKIHFTFTQFRTSPSQQSLVDPIVQLKGLTFTATGILTVVTQLFHHKNGARKSAKKILIVITDGQKYKDPLEYSDVIPQAEKAGIIRYAIGVGHAFQGPTARQELNTISSAPPQDHVFKVDNFAALGSIQKQLQEKIYAVEGTQSRASSSFQHEMSQEGFS[… human IgG4 Fc …]
notes: also called Iαd/IgG4; I domain chimera
B1: no binding [1]; no binding (bovine serum albumin).
